Laboratory results published in ChEMBL document CHEMBL1201862, “PubChem BioAssay data set” (2004).

These molecules were tested on NCI-H322M (assay: inhibition of tumour cell growth, NCI panel, 48 h).

| SMILES | GI50 |
| --- | --- |
| Cc1ccc(-c2nc3cc([N+](=O)[O-])ccc3[nH]2)cc1 | inactive: > 100 µM |
| c1ccc(C[N+]23CN4CN(CN(C4)C2)C3)cc1 | inactive: > 100 µM |
| CC#CCOC(=O)c1ccccc1OC(C)=O | inactive: > 100 µM |
| CNC(=O)OCc1cnc([N+](=O)[O-])n1C | inactive: > 100 µM |
| Cc1c(CN2CCOCC2)c(CN2CCOCC2)c(C)n1-c1ccc(Cl)cn1 | inactive: > 100 µM |
| O=C1C(Cl)N(c2ccc(Cl)cc2Cl)C1c1c[nH]c2ccccc12 (configuration not stated) | inactive: > 100 µM |
| NCC1OC(n2cnc3c(N)ncnc32)CC1O (configuration not stated) | inactive: > 100 µM |
| O=C(O)CC[C@H](NC(=O)c1ccc(-n2nc3ccc(=O)cc-3[nH]c2=O)cc1)C(=O)O | inactive: > 100 µM |
| Cc1cc(NS(=O)(=O)c2ccc(NC(NC(=O)OC(C)C)(C(F)(F)F)C(F)(F)F)cc2)nc(C)n1 | inactive: > 100 µM |
| CC(=O)OC(=C(C#N)C#N)c1nccnc1C(=O)O | inactive: > 100 µM |
| COc1ccc(C[C@]23CCC(=O)N2CCc2cc(OC)c(O)cc23)cc1O | inactive: > 100 µM |
| O=c1oc2ccccc2c(Nc2ccc3c(c2)Oc2ccccc2O3)c1[N+](=O)[O-] | inactive: 29.9 µM |
| S=c1nc(N2CCCCC2)ss1 | inactive: 78.9 µM |
| O=C(O)c1nc2ccccc2nc1NCc1ccc(F)cc1 | inactive: 39.1 µM |
| CN1CCN(Cc2ccc(C(=S)Nc3ccccc3)s2)CC1 | inactive: > 100 µM |
| CC12CC(c3ccccc3O1)C(C(=O)Nc1ccc(Cl)cc1Cl)C(=O)N2 (configuration not stated) | inactive: 24.9 µM |
| O=[N+]([O-])/C(C(Cl)=C(Cl)Cl)=C(/Cl)Sc1ccccc1 | inactive: 17.3 µM |
| CC(=O)c1ccc2c3c1[C@H]1O[C@H]1c1cccc(c1-3)[C@@H]1O[C@H]21 | inactive: 3.57 µM |
| CC(C)(SCc1ccccc1)C(N)C(=O)O (configuration not stated) | inactive: > 100 µM |
| O=C1C(=Cc2ccco2)C(=O)C2CCCCC12 (configuration not stated) | inactive: > 100 µM |
| CCC(=O)NC(Nc1cc(C)on1)(C(F)(F)F)C(F)(F)F | inactive: > 100 µM |
| COc1ccc(NC(=O)CC/C(CC(=O)c2ccco2)=N/NC(=O)C(N)=O)cc1 | inactive: > 100 µM |
| O=C(O)/C(=C/c1ccccc1)c1ccccc1 | inactive: > 100 µM |

| SMILES | GI50 |
| --- | --- |
| COc1cc(/C=N/n2c(-c3ccccc3)nn(C(C)=O)c2=O)cc(OC)c1OC | inactive: 1.87 µM |
| O=C(c1ccccc1)c1c(-c2ccccc2)[nH]n(-c2ccc([N+](=O)[O-])cc2)c(=O)c1=O | inactive: 57.1 µM |
| COc1cc(/C=N/NC(=O)c2ccc(NC(C)=O)cc2OC)ccc1O | inactive: 38.7 µM |
| CCOC(=O)C(=O)Nc1nc2c(OCC)cccc2s1 | inactive: > 100 µM |
| COC1=C(OC)C(=O)C(Cc2c(Cl)nc3sc(C)cn23)=C(C)C1=O | inactive: 17 µM |
| Cc1cc(O)ccc1C1(c2ccc(F)cc2)OC(=O)c2ccccc21 (configuration not stated) | inactive: 2.54 µM |
| C/C(=N\c1ccc(N(C)C)cc1)c1ccccc1 | inactive: 47.2 µM |
| CC(C)(C)c1ccc2c(c1)S(=O)(=O)Nc1ccccc1NS(=O)(=O)c1cc(C(C)(C)C)ccc1OCCOCCOCCO2 | inactive: > 100 µM |
| COc1cc(C(=O)Oc2c(C(C)=O)sc3c2c(=O)n(-c2ccccc2)c(=S)n3-c2ccccc2)cc(OC)c1OC | inactive: 23.7 µM |
| Cc1cccc2c(=O)cc(-c3ccccc3)[nH]c12 | inactive: 6.65 µM |
| O=C(N/N=C1\CCc2ccccc21)N/N=C1\CCc2ccccc21 | inactive: > 100 µM |
| CCOc1ccc(NC(=O)C(=O)C(C(=O)c2ccc3ccccc3c2)C2OC(=O)c3ccccc32)cc1 (configuration not stated) | inactive: 15.7 µM |
| Cc1ccc(P(c2ccc(C)cc2)c2ccc(C)cc2)cc1 | inactive: 35.6 µM |
| Cc1c(NC(=O)CCCl)c(=O)oc2c(C)c3occc(=O)c3cc12 | inactive: 97.3 µM |
| CCc1cccc(C(C)C)c1NC(=O)C(=O)Nn1c(S)nc2ccccc2c1=O | inactive: > 100 µM |
| COc1ccc(-c2c(N)n(-c3nc4ccccc4s3)c(=O)c3cc([N+](=O)[O-])ccc23)cc1 | inactive: 26.9 µM |
| COc1ccc(C(c2ccc3c(c2)OCO3)N2C(=O)CCC2C(=O)O)cc1 (configuration not stated) | inactive: > 100 µM |
| Cc1ccc(C(C2C(=O)N(C)C(=O)N(C)C2=O)C(F)(F)C(=O)N(C)C)cc1 (configuration not stated) | inactive: > 100 µM |
| O=C(O)CCC/N=C(\C(=N\CCCC(=O)O)c1ccccc1)c1ccccc1 | inactive: > 100 µM |
| CCOC(=O)c1sc2c(C(=O)OCC)n3ccccc3c2c1N | inactive: > 100 µM |
| O=CCC1CCCCC1 | inactive: > 100 µM |
| COC1=C(NC(C)=O)C(=O)c2nc3n(c2C1=O)CCC3 | inactive: 20.5 µM |
| COC(=O)NN=C1C(C)(C)C(=O)C1(C)C | inactive: > 100 µM |

| SMILES | GI50 |
| --- | --- |
| Cc1cc(C2(O)C=C(C(C)(C)C)C(=O)C(C(C)(C)C)=C2)c(C)cc1C1(O)C=C(C(C)(C)C)C(=O)C(C(C)(C)C)=C1 | inactive: > 100 µM |
| COc1cc2nc(Nc3cccc(Br)c3)nc(Nc3cccc(Br)c3)c2cc1OC | inactive: 21.6 µM |
| NC1(C(=O)O)CCC(C(=O)O)CC1 (configuration not stated) | inactive: > 100 µM |
| COc1ccc2c(c1)c1c(n2CCN2CCOCC2)-c2cccc(OC)c2CC1 | inactive: 68.7 µM |
| CN/N=C(\C(=O)Nc1ccc([N+](=O)[O-])cc1[N+](=O)[O-])C1NC(=O)NC1=O (configuration not stated) | inactive: > 100 µM |
| N=c1[nH]cnc2c1nnn2C1C=CC(COS(N)(=O)=O)C1 (configuration not stated) | inactive: 20 µM |
| N#Cc1c(N)nc2c(c1-c1ccc(Br)cc1)CSc1ccccc1-2 | inactive: > 100 µM |
| Cc1nc2n(c1/C=C1/C(=O)Nc3ccccc31)CCS2 | inactive: 59 µM |
| Clc1cc(-c2csc(Cl)c2)cs1 | inactive: > 100 µM |
| OC1(C(F)(F)F)OCCN=C1C(F)(F)F (configuration not stated) | inactive: > 100 µM |
| CNC(=O)NCCCCC(NC(=O)OCc1ccccc1)C(=O)OCc1ccccc1 (configuration not stated) | inactive: 47.3 µM |
| COc1cccc(NC(=O)CC(=O)N2NC(c3ccccc3)C(/N=N/c3cccc(C(=O)O)c3)C2=O)c1 (configuration not stated) | inactive: > 100 µM |
| COc1ccc(C2=Cc3nc2c(-c2ccccc2)c2ccc([nH]2)c(-c2ccccc2)c2nc(c(-c4ccccc4)c4ccc([nH]4)c3-c3ccccc3)C=C2)cc1 | inactive: > 100 µM |
| CC(C)N(C(=O)C12C3(C(=O)OC(C)(C)C)C4C5(C#N)C3C1(C(=O)OC(C)(C)C)C5C42C(=O)OC(C)(C)C)C(C)C (configuration not stated) | inactive: > 100 µM |
| Oc1ccc2ccccc2c1/N=N/c1ccsc1 | inactive: > 100 µM |
| O=C1NC(=O)C2C1C1C=C3c4ccccc4N(c4ccccc4)C32[C@H]2C(=O)NC(=O)[C@@H]12 (some centres not stated) | inactive: > 100 µM |
| COC(=O)c1cc(C(=CCC[C@H]2CC[C@@]3(C)C(CCC4C3CC[C@@]3(C)C4CC[C@@H]3C(C)CCCC(C)C)C2)c2cc(Cl)c(OC(=O)c3ccccc3)c(C(=O)OC)c2)cc(Cl)c1OC(=O)c1ccccc1 (some centres not stated) | inactive: > 10 µM |
| CC1(C)COC2=C(C1)C(=O)c1ccccc1C2=O | inactive: 1.67 µM |
| Cc1cc(Cl)ccc1Nc1sc(C(=O)c2cc3cc(Cl)ccc3o2)c(N)c1C#N | inactive: 12.4 µM |
| Brc1cccc(/N=N/N2CCCC2)c1 | inactive: > 100 µM |
| CCCCCC(=O)Nc1[nH]cnc1C(N)=O | inactive: > 100 µM |

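Compound exposure: 48 hours, 5 concentrations, 96-well plates. GI50 is the concentration that inhibits growth by half.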 The source made the active and inactive calls. Rule as the data show it: active = GI50 up to about 1.1 µM and inactive = higher.
